In publication PMC12040169 (PLOS Biology, 2025):
Read-outs that look alike come from different tables or passages of the source. The list shows a part of the results.

Tested on: T1, C. trachomatis L2/434/Bu expressing GFP (CTL2-GFP)
T1 construct: L2/434/Bu GFP intracellular growth in HeLa cells
Design: species or system HeLa; C. trachomatis total inclusion area by high-content imaging, normalised to DMSO
How it was run: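 Post-fluorescence-read fixation, DNA staining with Hoechst and high-content imaging; GFP inclusion area and number per well, and nuclei counts, used as proxies for bacterial growth and host viability.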

[1] = total inclusion area; 28.5 h, 10 µM; inhibitor

SMILES | % of control remaining [1] | % of control remaining (total inclusion area, 28.5 h, 10 µM, inhibitor)
CN(C)c1ccc(-c2nc(-c3ccco3)cnc2N)cc1 [CBK063934] | 53.224 | –
CCN1CCN(c2ccc(N3C(=O)N[C@@H](C(C)C)C3=O)cc2)CC1 [CBK287953] | 102.349 | –
NS(=O)(=O)c1cc(C(=O)OCC(=O)c2ccccc2)c(Cl)cc1Cl [CBK264542] | 100.499 | –
O=C(CSCc1nc(O)c2c3c(sc2n1)CCCC3)Nc1ccc(F)cc1 [CBK265568] | 100.112 | –
CCOc1ccc2nc(NC3=NC(CC(=O)O)C(=O)N3)nc(C)c2c1 (centres unmarked) [CBK263120] | 99.7867 | –
COc1ccc2nc(Nc3nc(C)c(C(C)=O)s3)sc2c1 [CBK287483] | 111.694 | –
Cc1cnn(CC2CCCCN2CC(=O)NCc2ccccn2)c1 (centres unmarked) [CBK304041] | 92.5006 | –
CCCOc1ccc(C(=O)C(CN(CC)CC)Oc2ccccc2)cc1 (centres unmarked) [CBK011944C] | 87.7723 | –
CC1CCN(S(=O)(=O)N2CCNCC2)CC1 [CBK269836C] | 102.24 | –
Cc1cc(C)n(C2CCN(Cc3c(C)nc4c(C)cccn34)CC2)n1 [CBK281617] | 56.9977 | –
OCCNC(=S)Nc1ccc(Cl)cc1Cl [CBK265330] | 113.075 | –
COc1cccc(CN(Cc2ccco2)Cc2[nH]cnc2C)c1 [CBK282495] | 119.575 | –
O=C(c1ccccc1F)N1C[C@H](c2ccsc2)[C@H]2CN(Cc3cccs3)CC[C@H]21 [CBK285657] | 92.64 | –
O=C(O)CNC(=O)[C@H]1CC[C@H](Cn2cnc3ccccc3c2=O)CC1 [CBK286714] | 34.005 | –
N#CCCn1cc(C(=O)N2CCCCC2)c(-c2cccc(Br)c2)n1 [CBK306202] | 55.1984 | –
CCOC(=O)CSc1nnc(-c2ccc(Cl)cc2)o1 [CBK068845] | 96.6659 | –
NNC(=O)CNS(=O)(=O)c1ccccc1 [CBK261967] | 111.943 | –
CN(C)CCNC(=O)c1ccc(-c2cnc3[nH]c(=O)n(C4CCCC4)c3n2)cc1 [CBK064957] | 83.3198 | –
COCCN1C(=O)C2(CC(=O)N(CC(=O)C(C)(C)C)C2=O)c2ccccc21 (centres unmarked) [CBK075324] | 51.5881 | –
O=C(NCCOc1ccccc1)c1nccnc1-c1ccc(COc2ccc3c(c2)CCCC3)cc1 [CBK050852] | 130.329 | –
O=C(c1cscn1)N1CCc2ccccc2C1 [CBK200342] | 90.6966 | –
Cc1ccc(-c2noc(CNC(=O)CSc3ccccc3)n2)cc1 [CBK270199] | 111.702 | –
COc1ccc(C(=O)NC(c2ccc(OC)c(OC)c2)c2cc(Cl)c3cccnc3c2O)cc1 (centres unmarked) [CBK263992] | 109.153 | –
COc1ccc(NC(=O)CN2CCN(S(=O)(=O)N(C)C)CC2)cc1 [CBK267465] | 91.7391 | –
CC(=O)Nc1cccc(-c2cncc(NC3CCC(O)CC3)n2)c1 (centres unmarked) [CBK065404] | 96.9868 | –
O=C(c1cc(-c2cccnc2)[nH]n1)N1CCC(c2ccccc2)C1 (centres unmarked) [CBK281849] | 108.288 | –
Cc1cc(NC(=O)CS(=O)(=O)Cc2cccc(C(F)(F)F)c2)no1 [CBK304520] | 25.5278 | –

SMILES | % of control remaining [1] | % of control remaining (total inclusion area, 28.5 h, 10 µM, inhibitor)
Cc1cc(I)ccc1S(=O)(=O)NCc1ccccn1 [CBK262155] | 91.3999 | –
CC(C)(C)OC(=O)N1CCN(CCn2cc(C(=O)O)nn2)CC1 [CBK287112] | 111.23 | –
CCC(CN1CCOCC1)NC(=O)Cc1ccc2c(c1)CCC2 (centres unmarked) [CBK282810] | 56.3443 | –
O=C(Cn1cc(-c2ccc(CN3CCCCC3)cc2)nn1)NCc1ccc(OC(F)F)cc1 [CBK167514] | 86.8432 | –
CCc1ccc2c(c1)C(CCNC(=O)c1cscc1C(F)(F)F)C(=O)N2 (centres unmarked) [CBK304728] | 97.4938 | –
Cc1cc(C(=O)N2CCC(Cc3ccccc3)CC2)n[nH]1 [CBK200187] | 90.8184 | –
O=C(Cc1ccsc1)N1CCCC2(CCN(Cc3ccccc3)C2)C1 (centres unmarked) [CBK136868] | 116.423 | –
CC(C)(C)C(=O)N1CCN(Cc2ccc3c(c2)OCO3)CC1 [CBK074842] | 90.5061 | –
O=C(Cn1ncn2nc(-c3ccccc3)cc2c1=O)Nc1ccc(F)cc1 [CBK287759] | 89.9769 | –
Cc1ccccc1N1CCN(C(=O)c2c(C)oc3cc4c(C(=O)N5CCN(c6ccccc6C)CC5)c(C)oc4cc23)CC1 [CBK264833] | 107.959 | –
Cc1cccc(-c2ocnc2C(=O)NCCCn2ccnc2)c1 [CBK282418] | 35.3652 | –
Cc1ccc(-c2nc3cc(Cl)ccc3o2)cc1NC(=S)NC(=O)c1cccc(Cl)c1 [CBK264022] | 76.8611 | –
Nc1nc(NCCOc2ccccc2Cl)cc(C2CC(N)C2)n1 (centres unmarked) [CBK306825] | 46.7156 | –
CC(C)CCNC(=O)c1c(O)c2ccccc2[nH]c1=O [CBK159975] | 104.743 | –
COc1cc(-c2ccc3ccc(N)nc3n2)cc(OC)c1OC [CBK061866] | 129.037 | –
CCc1cc(=O)[nH]c(-c2ccc(N3CC(C(N)=O)CCC3C)nc2)n1 (centres unmarked) [CBK306448] | 103.422 | –
CC(C)CCn1c(=S)[nH]c2c(oc3ccccc32)c1=O [CBK288504] | 98.9984 | –
Cc1cc(Cl)cc(Br)c1OCCNCCN(C)C [CBK267791G] | 66.4825 | –
Cc1ccc(C(=O)O)cc1S(=O)(=O)N(CCO)CCO [CBK267335] | 107.208 | –
CC1CC(C)CN(C(=O)c2cc(S(=O)(=O)N3CCOCC3)ccc2Cl)C1 (centres unmarked) [CBK305000] | 40.3862 | –
COCCCOc1cncc(NC(C)C)n1 [CBK115880] | 107.485 | –
COc1cc(-c2cnc3[nH]c(=O)n(C4CCOCC4)c3n2)cc(OC)c1OC [CBK064255] | 120.428 | –
O=C(O)C1C2C=CC(C2)C1C(=O)N1CCN(C(c2ccccc2)c2ccccc2)CC1 (centres unmarked) [CBK262659] | 101.131 | –
COc1ccc2[nH]c3c(c2c1)CCN(S(C)(=O)=O)C31CCN(CCOc2ccccc2)C1 (centres unmarked) [CBK063187T] | 96.5007 | –
Cn1nc(C(C)(C)C)cc1C(=O)N1CCNC(=O)C1Cc1ccccc1-c1ccc(F)cc1 (centres unmarked) [CBK285830] | 91.4794 | –
Cc1cc2c(s1)c1cnn(Cc3cccnc3)c(=O)c1n2C [CBK284154] | 108.266 | –
Clc1ccc(COc2nccnc2OC2CCN(CC3CC3)CC2)cc1Cl [CBK083123] | – | 111.977

SMILES | % of control remaining [1] | % of control remaining (total inclusion area, 28.5 h, 10 µM, inhibitor)
CN1CCN(S(=O)(=O)c2ccc(Br)cc2C(F)(F)F)CC1 [CBK062437] | 67.0821 | –
Nc1ncc(-c2ccccc2)nc1NC1CCOCC1 [CBK063748] | 140.343 | –
CCOC1=NCCN2CCc3cccc1c32 [CBK023113] | 78.2229 | –
COc1cccc(-c2nccc3ccn(CC(=O)N4CC=CCC4)c23)c1 [CBK284806] | 106.625 | –
N#C/C(=C\c1cn(Cc2ccc(Cl)cc2Cl)nc1-c1ccccc1)c1nc2ccccc2[nH]1 [CBK262545] | 98.8835 | –
N/C(=N\OC(=O)c1cccc(Br)c1)c1ccccc1 [CBK261703] | 90.961 | –
CCCN(C)Cc1ccc(-c2nnn(CC(=O)NCc3ccc(CC)cc3)n2)cc1NC(C)=O [CBK164703] | 27.0796 | –
Cc1nnc(SCC(=O)N/N=C/c2cc([N+](=O)[O-])ccc2O)n1-c1ccccc1 [CBK262768] | 101.513 | –
O=C(CCn1cnc2ccccc21)N1CCC(c2ccncc2)CC1 [CBK283522] | 83.179 | –
Cc1noc(C)c1C(=O)Nc1cnc(-c2ccc(F)cc2)c(-c2ccsc2)n1 [CBK036781] | 85.0725 | –
Cc1noc(C)c1C(=O)N1CCCCCC1c1c(Cl)cnn1C (centres unmarked) [CBK284918] | 108.862 | –
c1ccc(CN2C[C@H]3CCc4c[nH]nc4[C@H]3C2)nc1 [CBK282108] | 120.991 | –
COc1ccc(C(C)c2cc3c(cc2N)OCO3)cc1 (centres unmarked) [CBK200102T] | 54.9286 | –
CC(C)CC(NC(=O)c1ccccc1)C(=O)OCC(=O)Nc1nc2ccccc2s1 (centres unmarked) [CBK085134] | 103.875 | –
COc1ccccc1CNC(=O)c1ccc2nc(C)c(N(C)C(=O)c3cccs3)n2c1 [CBK146546] | 120.787 | –
Cc1cc(NC(=O)C(C)(C)Oc2ccc(Cl)cc2)nc2c1c(=O)oc1ccccc12 [CBK291132] | 100.871 | –
O=C(COc1cccnc1)NCc1ccc(-c2csnn2)cc1 [CBK149312] | 100.801 | –
CS(=O)(=O)c1ccc(-c2ccnc3nc(N)ccc23)cc1 [CBK067648] | 100.909 | –
COc1ccc(C)cc1S(=O)(=O)n1ccc2c(OC3CCCN(C)C3)nccc21 (centres unmarked) [CBK051582C] | 120.343 | –
CC(C)CC(NC(=O)C1CCC(C)CC1)C(=O)O (centres unmarked) [CBK287212] | 101.754 | –
COc1ccc(C(=O)Nc2nc(-c3nc4ccccc4s3)cs2)cc1 [CBK287563] | 118.219 | –
Cc1ccc(NC(=O)N(Cc2ccccc2Br)CC(C)(C)CN)cc1[N+](=O)[O-] [CBK002436C] | 40.4254 | –
COc1ccc(C2N3CCCN2CC3)cc1 (centres unmarked) [CBK067068] | 70.3155 | –
COc1ccc(C2=NN(c3ccccc3)C(c3cn(-c4ccccc4)nc3-c3ccccc3)C2)cc1 (centres unmarked) [CBK263230] | 91.4144 | –
Cc1onc(-c2ccccc2)c1CNC(=O)c1ccco1 [CBK144074] | 98.3174 | –
Cc1cc(C(=O)NCc2cccnc2N(C)C2CCCCC2)nn1C [CBK306577] | 74.0977 | –
